# The list shows a part of the results.
# B1: EULS2 M4 (Oryza sativa) (protein)
# chain: MVYCRANPNYAMTARNGAVVLAPANPKDEYQHWIKDMRWSTSIKDEEGYPAFALVNKATGQAIKHSLGQSHPVRLVPYNPEVMDESVLWTESRDVGNGFRCIRMVNNIYLNFDAFHGDKYHGGVRDGTDIVLWKWCEGDSLRWKIQPYYILEQKLISEEDLNSAVDHHHHHH
# Legend:
# Assay in all cases: glycan array binding signal (z-score within array); higher = stronger binding
# Conditions in all cases: glycan notation: IUPAC condensed, linker removed
# [1] = biological target: GalNAc(b1-4)GlcNAc(b1-2)Man
# Method in brief: (§1)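 The binding signal is a Z-score computed within each array and averaged over linkers. Arrays of the same protein sequence at different concentrations or buffers were also averaged together. Data originate from 3228 arrays in the Consortium for Functional Glycomics database, kept only where the protein sequence was available.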
# [2] = biological target: GalNAc(b1-4)GlcNAc(b1-2)Man(a1-3)[GalNAc(b1-4)GlcNAc(b1-2)Man(a1-6)]Man(b1-4)GlcNAc(b1-4)GlcNAc
# Method in brief: as §1
# [3] = biological target: GalNAc(b1-4)GlcNAc(b1-3)GalNAc(b1-4)GlcNAc
# Method in brief: as §1
# [4] = biological target: GalNAc(b1-4)GlcNAc6S
# Method in brief: as §1
# [5] = biological target: GalNAc(b1-6)GalNAc
# Method in brief: as §1
# [6] = biological target: GalNAc3S(b1-4)GlcNAc
# Method in brief: as §1
# [7] = biological target: GalNAc3S(b1-4)GlcNAc3S
# Method in brief: as §1
# [8] = biological target: GalNAc3S(b1-4)[Fuc(a1-3)]GlcNAc
# Method in brief: as §1
# [9] = biological target: GalNAc4S6S(b1-4)GlcNAc
# Method in brief: as §1
# [10] = biological target: GalNAc6S(b1-4)GlcNAc
# Method in brief: as §1
# [11] = biological target: Glc(a1-4)Glc
# Method in brief: as §1
# [12] = biological target: Glc(a1-4)Glc(a1-4)Glc(a1-4)Glc
# Method in brief: as §1
# [13] = biological target: Glc(a1-6)Glc(a1-6)Glc
# Method in brief: as §1
# [14] = biological target: Glc(a1-6)Glc(a1-6)Glc(a1-6)Glc
# Method in brief: as §1
# [15] = biological target: Glc(b1-4)Glc
# Method in brief: as §1
# [16] = biological target: Glc(b1-6)Glc
# Method in brief: as §1
# [17] = biological target: GlcA(b1-3)Gal
# Method in brief: as §1
# [18] = biological target: GlcA(b1-3)GlcNAc
# Method in brief: as §1
# [19] = biological target: GlcA(b1-6)Gal
# Method in brief: as §1
# [20] = biological target: GlcA3S(b1-3)Gal(b1-4)GlcNAc(b1-2)Man
# Method in brief: as §1
# [21] = biological target: GlcA3S(b1-3)Gal(b1-4)GlcNAc(b1-3)Gal(b1-4)Glc
# Method in brief: as §1
# [22] = biological target: GlcNAc(a1-3)Gal(b1-4)GlcNAc
# Method in brief: as §1
# [23] = biological target: GlcNAc(a1-4)Gal(b1-3)GlcNAc
# Method in brief: as §1
# [24] = biological target: GlcNAc(a1-4)Gal(b1-4)GalNAc
# Method in brief: as §1
# [25] = biological target: GlcNAc(a1-4)Gal(b1-4)GlcNAc
# Method in brief: as §1
# [26] = biological target: GlcNAc(a1-4)Gal(b1-4)GlcNAc(b1-3)Gal(b1-4)Glc
# Method in brief: as §1
# [27] = biological target: GlcNAc(a1-4)Gal(b1-4)GlcNAc(b1-3)Gal(b1-4)GlcNAc
# Method in brief: as §1
# [28] = biological target: GlcNAc(a1-4)Gal(b1-4)GlcNAc(b1-3)Gal(b1-4)GlcNAc(b1-3)Gal(b1-4)GlcNAc
# Method in brief: as §1
# [29] = biological target: GlcNAc(a1-4)Gal(b1-4)GlcNAc(b1-3)Gal(b1-4)[Fuc(a1-3)]GlcNAc(b1-3)Gal(b1-4)[Fuc(a1-3)]GlcNAc
# Method in brief: as §1
# [30] = biological target: GlcNAc(a1-6)Gal(b1-4)GlcNAc
# Method in brief: as §1
# [31] = biological target: GlcNAc(b1-2)Gal(b1-3)GalNAc
# Method in brief: as §1
# [32] = biological target: GlcNAc(b1-2)Man(a1-3)[GlcNAc(b1-2)Man(a1-6)]Man(b1-4)GlcNAc(b1-4)GlcNAc
# Method in brief: as §1
# [33] = biological target: GlcNAc(b1-2)Man(a1-3)[GlcNAc(b1-2)Man(a1-6)]Man(b1-4)GlcNAc(b1-4)[Fuc(a1-6)]GlcNAc
# Method in brief: as §1
# [34] = biological target: GlcNAc(b1-2)Man(a1-3)[GlcNAc(b1-4)][GlcNAc(b1-2)Man(a1-6)]Man(b1-4)GlcNAc(b1-4)GlcNAc
# Method in brief: as §1
# [35] = biological target: GlcNAc(b1-2)Man(a1-3)[GlcNAc(b1-4)][GlcNAc(b1-2)Man(a1-6)]Man(b1-4)GlcNAc(b1-4)[Fuc(a1-6)]GlcNAc
# Method in brief: as §1
# [36] = biological target: GlcNAc(b1-2)[GlcNAc(b1-4)]Man(a1-3)[GlcNAc(b1-2)Man(a1-6)]Man(b1-4)GlcNAc(b1-4)GlcNAc
# Method in brief: as §1
# [37] = biological target: GlcNAc(b1-2)[GlcNAc(b1-4)]Man(a1-3)[GlcNAc(b1-4)][GlcNAc(b1-2)Man(a1-6)]Man(b1-4)GlcNAc(b1-4)GlcNAc
# Method in brief: as §1
# [38] = biological target: GlcNAc(b1-2)[GlcNAc(b1-4)]Man(a1-3)[GlcNAc(b1-4)][GlcNAc(b1-2)[GlcNAc(b1-6)]Man(a1-6)]Man(b1-4)GlcNAc(b1-4)GlcNAc
# Method in brief: as §1
# [39] = biological target: GlcNAc(b1-2)[GlcNAc(b1-4)]Man(a1-3)[GlcNAc(b1-4)][GlcNAc(b1-2)[GlcNAc(b1-6)]Man(a1-6)]Man(b1-4)GlcNAc(b1-4)[Fuc(a1-6)]GlcNAc
# Method in brief: as §1
# [40] = biological target: GlcNAc(b1-2)[GlcNAc(b1-6)]Man(a1-6)[GlcNAc(b1-2)Man(a1-3)]Man(b1-4)GlcNAc(b1-4)GlcNAc
# Method in brief: as §1
# [41] = biological target: GlcNAc(b1-2)[GlcNAc(b1-6)]Man(a1-6)[GlcNAc(b1-2)Man(a1-3)]Man(b1-4)GlcNAc(b1-4)[Fuc(a1-6)]GlcNAc
# Method in brief: as §1
# [42] = biological target: GlcNAc(b1-2)[GlcNAc(b1-6)]Man(a1-6)[GlcNAc(b1-4)][GlcNAc(b1-2)Man(a1-3)]Man(b1-4)GlcNAc(b1-4)GlcNAc
# Method in brief: as §1
# [43] = biological target: GlcNAc(b1-3)Fuc
# Method in brief: as §1
# [44] = biological target: GlcNAc(b1-3)Gal
# Method in brief: as §1
# [45] = biological target: GlcNAc(b1-3)Gal(b1-3)GalNAc
# Method in brief: as §1
binder,measurement,setting,value
B1,glycan array binding signal (z-score),[1],-0.213
same,glycan array binding signal (z-score),[2],-0.11
same,glycan array binding signal (z-score),[3],-0.494
same,glycan array binding signal (z-score),[4],-0.326
same,glycan array binding signal (z-score),[5],-0.396
same,glycan array binding signal (z-score),[6],-0.46
same,glycan array binding signal (z-score),[7],-0.634
same,glycan array binding signal (z-score),[8],0.46
same,glycan array binding signal (z-score),[9],-0.394
same,glycan array binding signal (z-score),[10],-0.089
same,glycan array binding signal (z-score),[11],-0.419
same,glycan array binding signal (z-score),[12],0.089
same,glycan array binding signal (z-score),[13],0.287
same,glycan array binding signal (z-score),[14],-0.515
same,glycan array binding signal (z-score),[15],-0.598
same,glycan array binding signal (z-score),[16],-0.026
same,glycan array binding signal (z-score),[17],-0.38
same,glycan array binding signal (z-score),[18],2.29
same,glycan array binding signal (z-score),[19],-0.632
same,glycan array binding signal (z-score),[20],-0.306
same,glycan array binding signal (z-score),[21],-0.489
same,glycan array binding signal (z-score),[22],-0.316
same,glycan array binding signal (z-score),[23],-0.229
same,glycan array binding signal (z-score),[24],-0.159
same,glycan array binding signal (z-score),[25],-0.631
same,glycan array binding signal (z-score),[26],1.59
same,glycan array binding signal (z-score),[27],-0.554
same,glycan array binding signal (z-score),[28],-0.045
same,glycan array binding signal (z-score),[29],0.121
same,glycan array binding signal (z-score),[30],0.149
same,glycan array binding signal (z-score),[31],-0.527
same,glycan array binding signal (z-score),[32],-0.333
same,glycan array binding signal (z-score),[33],-0.215
same,glycan array binding signal (z-score),[34],-0.089
same,glycan array binding signal (z-score),[35],-0.133
same,glycan array binding signal (z-score),[36],0.753
same,glycan array binding signal (z-score),[37],-0.288
same,glycan array binding signal (z-score),[38],-0.347
same,glycan array binding signal (z-score),[39],-0.221
same,glycan array binding signal (z-score),[40],-0.373
same,glycan array binding signal (z-score),[41],0.298
same,glycan array binding signal (z-score),[42],-0.337
same,glycan array binding signal (z-score),[43],-0.287
same,glycan array binding signal (z-score),[44],0.256
same,glycan array binding signal (z-score),[45],0.129

# From the supplement of paper PMC8728848
